Results from PubChem BioAssay AID1745853 (National Center for Advancing Translational Sciences (NCATS), 2022).
Several values for one entry are separate records, joined by “and”; a condition that tells them apart may be missing. Equal entries are not always repeated. Some of the results follow. Further columns of the screen follow, without active or inactive calls.

What was measured:
Test in all cases: Primary Screen for Target Class Profiling of Small Molecule Inhibitors of Methyltransferases
[1] = target: Glycine N-methyltransferase (Homo sapiens) (UniProt Q14749); conditions: purified enzyme, MTase-Glo SAH luminescence; measured here: GNMT inhibition; at 40 µM; stronger effect = lower value
Outline: (§1)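 Each enzyme was reacted with SAM and its substrate, with compounds tested once at 40 uM; SAH formed was read by MTase-Glo luminescence.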

[2] = target: Guanidinoacetate N-methyltransferase (Homo sapiens) (UniProt Q14353); conditions: purified enzyme, MTase-Glo SAH luminescence; measured here: GAMT inhibition; at 40 µM; stronger effect = lower value
Outline: as §1

[3] = target: Histamine N-methyltransferase (Homo sapiens) (UniProt P50135); conditions: purified enzyme, MTase-Glo SAH luminescence; measured here: HNMT inhibition; at 40 µM; stronger effect = lower value
Outline: as §1

[4] = target: Nicotinamide N-methyltransferase (Homo sapiens) (UniProt P40261); conditions: purified enzyme, MTase-Glo SAH luminescence; measured here: NNMT inhibition; at 40 µM; stronger effect = lower value
Outline: as §1

[5] = target: Phenylethanolamine N-methyltransferase (Homo sapiens) (UniProt P11086); conditions: purified enzyme, MTase-Glo SAH luminescence; measured here: PNMT inhibition; at 40 µM; stronger effect = lower value
Outline: as §1
On the % scale 0 is the no-effect control and ±100 the full control effect.

**Q.** For `CCOc1ccc(CN2CCCC(CCC(=O)Nc3ccccc3F)C2)cc1CO` (stereo not given), which activity change, negative = inhibition [1] is on record?
**A.** -5.1%

**Q.** And the activity change, negative = inhibition [2]?
**A.** -4.89%

**Q.** And the activity change, negative = inhibition [3]?
**A.** -6.08%

**Q.** What about the activity change, negative = inhibition [4] of the same compound?
**A.** -8.76%

**Q.** And the activity change, negative = inhibition [5]?
**A.** 5.26%

**Q.** Which activity change, negative = inhibition [1] does the source give for `CNc1nc(Nc2cn(C(C)(C)C#N)nc2C)ncc1C(F)(F)F` here?
**A.** 1.42%

**Q.** And the activity change, negative = inhibition [2]?
**A.** 1.1% and 7.57%

**Q.** What about the activity change, negative = inhibition [3] of the same compound?
**A.** 7.81%

**Q.** And the activity change, negative = inhibition [4]?
**A.** -30.3% and -25.2%

**Q.** What about the activity change, negative = inhibition [5] of the same compound?
**A.** 4.83% and 5.86%

**Q.** What does the source list for `O=C(NCc1ccccc1)C1COC2(CCN(C(=O)c3cccs3)CC2)N1C(=O)c1ccco1` (stereo not given)?
**A.** activity change, negative = inhibition [1]: -3.77%; activity change, negative = inhibition [2]: -3.73%; activity change, negative = inhibition [3]: -1.48%; activity change, negative = inhibition [4]: -3.76%; activity change, negative = inhibition [5]: 1.48%

**Q.** `COC(=O)[C@@H]1C[C@H](NC(=O)c2c(Cl)cccc2Cl)CN1C` was tested. Which activity change, negative = inhibition [1] did it give?
**A.** -5.11%

**Q.** And the activity change, negative = inhibition [2]?
**A.** -7.83%

**Q.** What about the activity change, negative = inhibition [3] of the same compound?
**A.** -3.57%

**Q.** And the activity change, negative = inhibition [4]?
**A.** -9.37%

**Q.** What about the activity change, negative = inhibition [5] of the same compound?
**A.** -5.82%

**Q.** `O=C(NC1CCCC1)c1ccc2c(=O)n(Cc3ccccc3)c3n[nH]c(=O)n3c2c1` was tested. Which activity change, negative = inhibition [1] did it give?
**A.** -9.66%

**Q.** What about the activity change, negative = inhibition [2] of the same compound?
**A.** -0.421%

**Q.** What about the activity change, negative = inhibition [3] of the same compound?
**A.** -5.36%

**Q.** What about the activity change, negative = inhibition [4] of the same compound?
**A.** -27.2%

**Q.** And the activity change, negative = inhibition [5]?
**A.** -15.3%

**Q.** Which activity change, negative = inhibition [1] does the source give for `CC(C)CNC(=O)c1ccc2c(=O)n(C(C)C)c3nn(CC(=O)NC4CCCCC4)c(=O)n3c2c1` here?
**A.** 7.53%

**Q.** And the activity change, negative = inhibition [2]?
**A.** 0%

**Q.** What about the activity change, negative = inhibition [3] of the same compound?
**A.** 11.3%

**Q.** And the activity change, negative = inhibition [4]?
**A.** 2.68%

**Q.** What about the activity change, negative = inhibition [5] of the same compound?
**A.** 5%

**Q.** What does the source list for `NC1CCC(N[C@@H]2C[C@H]2c2ccccc2)CC1` (stereo not given in full)?
**A.** activity change, negative = inhibition [1]: 5.9%; activity change, negative = inhibition [2]: 8.87%; activity change, negative = inhibition [3]: 11.7%; activity change, negative = inhibition [4]: -1.79%; activity change, negative = inhibition [5]: 8.59%

**Q.** Which activity change, negative = inhibition [1] does the source give for `CCc1ccc(N2C(=O)c3cc4occc4n3CC2(C)C(=O)NC2CCCC(C)C2C)cc1` (stereo not given) here?
**A.** -4.61%

**Q.** What about the activity change, negative = inhibition [2] of the same compound?
**A.** -1.44%

**Q.** What about the activity change, negative = inhibition [3] of the same compound?
**A.** -2.47%

**Q.** And the activity change, negative = inhibition [4]?
**A.** -5.39%

**Q.** And the activity change, negative = inhibition [5]?
**A.** -6.11%

**Q.** What does the source list for `CCc1nc(C)sc1C(=O)N1C[C@@H](CN2CCCN(C)CC2)[C@@H](CO)C1`?
**A.** activity change, negative = inhibition [1]: -1.36%; activity change, negative = inhibition [2]: 2.6%; activity change, negative = inhibition [3]: -0.102%; activity change, negative = inhibition [4]: -4%; activity change, negative = inhibition [5]: -2.72%

**Q.** For `COCCOCC(=O)N1CCC(N2C[C@H](OC)[C@@H]2c2cccnc2)CC1`, which activity change, negative = inhibition [1] is on record?
**A.** -1.25%

**Q.** And the activity change, negative = inhibition [2]?
**A.** -3.91%

**Q.** What about the activity change, negative = inhibition [3] of the same compound?
**A.** -1.64%

**Q.** What about the activity change, negative = inhibition [4] of the same compound?
**A.** -0.88%

**Q.** What about the activity change, negative = inhibition [5] of the same compound?
**A.** -23.8%
